In patent US20250297030A1 (SHANDONG SIMCERE BIOPHARMACEUTICAL, published 2025):

Experiments:
[1] = biological target: T1, Human MUC17 ECD4131-his (His-tagged human MUC17 protein extracellular domain fusion protein) (human, UniProt Q685J3 partial chain); experiment: ELISA on coated human MUC17 ECD4131-his, OD450
T1 construct: a truncation of the extracellular domain; also called human MUC17-his protein; human MUC17-His
Protocol: (§1) A human MUC17-his protein was diluted with PBS to a final concentration of […] and then added to a 96-well ELISA plate at 50 µL/well. The plate was incubated at 4° C. overnight. The next day, the plate was washed 2 times with PBST, and a blocking buffer [PBS+2% (w/w) BSA] was added for blocking at room temperature for 2 h. The blocking buffer was discarded, and the recombinant antibody and positive and negative control antibody with a starting concentration of 100 nM serially diluted by 3 folds were added at 50 μL/well. After incubation at 37° C. for 1 h, the plate was washed 3 times with PBST. A horseradish peroxidase (HRP)-labeled secondary antibody (purchased from Merck, Cat. No. AP113P) was added for incubation at 37° C. for 1 h, and the plate was washed 5 times with PBST. A TMB substrate was added at 50 μL/well for incubation at room temperature for 10 min, and then a stop solution (1.0 M HCl) was added at 50 µL/well. The OD₄₅₀ nm values were read by an ELISA plate reader (Multimode Plate Reader, EnSight, purchased from Perkin Elmer).

[2] = biological target: T2, Cyno MUC17 ECD3577-his (His-tagged cynomolgus monkey MUC17 protein extracellular domain fusion protein) (cynomolgus monkey); experiment: ELISA on coated monkey MUC17 ECD3577-His, OD450
T2 construct: also called monkey MUC17-his protein; monkey MUC17 ECD3577-His
T2 chain: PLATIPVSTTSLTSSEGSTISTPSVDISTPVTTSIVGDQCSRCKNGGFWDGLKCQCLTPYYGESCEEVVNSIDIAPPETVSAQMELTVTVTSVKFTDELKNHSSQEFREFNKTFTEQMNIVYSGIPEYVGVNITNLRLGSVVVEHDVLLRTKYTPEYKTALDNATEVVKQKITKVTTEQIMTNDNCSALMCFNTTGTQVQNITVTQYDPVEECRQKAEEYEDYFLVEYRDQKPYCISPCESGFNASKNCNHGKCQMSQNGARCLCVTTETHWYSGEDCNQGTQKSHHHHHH
Protocol: as §1
The monkey MUC17-his protein was subjected to ELISA and data analysis according to the method described in Example 3.2. The recombinant antibodies Lab315-huFc, Lab316-huFc, Lab320-huFc, Lab331-huFc, and Lab332-huFc have a relatively good binding activity with the monkey MUC17-his protein.

[3] = biological target: T1, Human MUC17 ECD4131-his (His-tagged …); experiment: SPR (Biacore 8K), antibody captured on Protein A
How it was run: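 Antibodies captured on a Protein A CM4 chip, then a single antigen concentration injected per cycle (multi-cycle kinetics) in HBS-EP+ at 25 °C, 30 L/min; Glycine pH 1.5 regeneration. Ka, Kd, KD and Rmax fitted to a 1:1 binding model.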

[4] = biological target: T1, Human MUC17 ECD4131-his (His-tagged …); experiment: SPR (Biacore 8K), antibody captured on Protein A; remark: listed apart in the source
Protocol: The strength of antibody-antigen binding was assayed with a BIAcore 8K instrument using an Protein A capture method. First, Protein A was immobilized onto a CM4 chip (purchased from GE, BR-1005-34) using an amino coupling method. According to the instruction of the Amine Coupling Kit (purchased from GE, BR100633), NHS and EDC were mixed with HBS-EP+ pH 7.4 as a mobile phase to activate the chip for about 600 s; the Protein A was diluted to 50 µg/mL with 10 mM sodium acetate (pH 4.5) and injected for 600 s, and finally, the remaining activated sites were blocked with ethanolamine. Then, the affinity of the antibody for the antigen was assayed using a multi-cycle kinetic method; in each cycle, first, the antibody to be tested was captured using the Protein A chip, and then a single concentration of antigen protein was injected. The association and dissociation processes of the antibody with the antigen protein were recorded, and finally, the chip was regenerated using Glycine pH 1.5, wherein the mobile phase was HBS-EP+ (10 mM HEPES, 150 mM NaCl, 3 mM EDTA, 0.05% surfactant P20), the flow rate was […], the regeneration time was 30 s, and the assay temperature was 25° C. Finally, according to a 1:1 binding model, the data were analyzed, and the antibody-antigen binding kinetics parameters, including the association rate constant Ka, the dissociation rate constant Kd, the equilibrium dissociation constant KD, and the maximum binding signal Rmax, were fitted. The association rate (Ka), dissociation rate (Kd), and binding affinity (KD) of the recombinant antibodies Lab315-huFc, Lab316-huFc, Lab320-huFc, Lab331-huFc, and Lab332-huFc with the human MUC17 protein are shown in Table 5.

[5] = biological target: T1, Human MUC17 ECD4131-his (His-tagged …); experiment: ELISA on coated human MUC17 ECD4131-his, OD450; remark: listed apart in the source
Protocol: as §1

[6] = biological target: T2, Cyno MUC17 ECD3577-his (His-tagged …); experiment: ELISA on coated monkey MUC17 ECD3577-His, OD450
Protocol: To assay the binding activity of the humanized antibodies with the monkey MUC17-his protein, the monkey MUC17-his protein was diluted with PBS to a final concentration of […] and subjected to ELISA assay and data analysis according to the method described in Example 3.3. The humanized antibodies SCR-7724, SCR-7782, SCR-7783, SCR-7784, and SCR-7785 have cross-binding activity with the monkey MUC17 protein, maintaining the binding ability of the recombinant antibody.

[7] = biological target: T3, human MUC17 on NUGC4 endogenous tumor cells (human, UniProt Q685J3); experiment: FACS on NUGC4 cells, MFI
Protocol: (§2) Then a complete medium was added to stop the digestion, and the cells were blown into a single cell suspension. After counting, the cells were centrifuged, and the cell pellet was resuspended to 2×10⁶ cells/mL in an FACS buffer (PBS+2% fetal bovine serum), and added to a 96-well FACS reaction plate at 100 µL/well. The plate was centrifuged, and the supernatant was discarded. An antibody sample to be tested (diluted in a 3-fold gradient from a starting concentration of 100 nM) was added at 50 µL/well and uniformly mixed with the cells, and the mixture was incubated at 4° C. for 1 h. […] The results were tested and analyzed by FACS (FACS Canto™, purchased from BD) after the plate was centrifuged and washed 3 times with a PBS buffer and resuspended with 100 μL of PBS. Data analysis was performed by software (FlowJo) to obtain the mean fluorescence intensity (MFI) of the cells. Then, analysis was performed by software (GraphPad Prism8), data were fitted, and EC50 values were calculated. As shown in FIGS. 3A-3B, the recombinant antibodies Lab315-huFc, Lab316-huFc, Lab320-huFc, Lab331-huFc, and Lab332-huFc are all capable of binding specifically to NUGC-4 cells.
The preparation of the assay cells and the antibodies to be tested and the assay were performed with reference to Example 3.4. The humanized antibodies all have a relatively good binding activity with endogenous cells NUGC4, maintaining the binding ability of the corresponding recombinant antibodies before humanization.

[8] = biological target: T4, monkey MUC17 fragment on FlpinCHO-Cyno(3597-3964)-D2 cells (monkey); experiment: FACS on FlpinCHO-Cyno(3597-3964)-D2 cells, MFI
T4 chain: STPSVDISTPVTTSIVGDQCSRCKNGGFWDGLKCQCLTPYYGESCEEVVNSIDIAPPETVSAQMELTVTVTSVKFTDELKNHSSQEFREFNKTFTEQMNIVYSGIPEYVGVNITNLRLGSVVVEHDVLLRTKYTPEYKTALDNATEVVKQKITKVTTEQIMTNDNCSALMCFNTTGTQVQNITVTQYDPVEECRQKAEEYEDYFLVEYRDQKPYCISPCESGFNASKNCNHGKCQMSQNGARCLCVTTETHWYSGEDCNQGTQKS

[9] = biological target: T4, monkey MUC17 fragment on …; experiment: FACS on FlpinCHO-Cyno(3597-3964)-D2 cells, MFI
[10] = biological target: T3, human MUC17 on NUGC4 endogenous tumor …; experiment: FACS on NUGC4 cells, MFI; remark: listed apart in the source
Protocol: as §2

Binder | EC50 (read off the curve) [1] [nM] | EC50 (read off the curve) [2] [nM] | Kd [3] [nM] | koff [3] [s⁻¹] | kon [3] [M⁻¹ s⁻¹] | Kd [4] [nM] | koff [4] [s⁻¹] | kon [4] [M⁻¹ s⁻¹] | EC50 (read off the curve) [5] [nM] | EC50 (read off the curve) [6] [nM] | EC50 (read off the curve) [7] [nM] | EC50 (read off the curve) [8] [nM] | EC50 (read off the curve) [9] [nM] | EC50 (read off the curve) [10] [nM]
Lab320-huFc (Fc fusion, Nanobody expressed in human Fc fusion form) DVQLQASGGGSVQSGGSLRLSCAASGFPSSRGTMAWFRQAPGREREGVAFINSDGRTSYAESVKGRFTISRDNALSTLWLQMNSLKPEDTGMYYCAASLLYLMTVNAAAYPYWGQGTQVTVSS[omitted - human IgG1 Fc with C220S (EU numbers)] | ~0.05 | ~0.06 | 0.527 | 0.000103 | 196000 | 0.556 | 0.000106 | 190000 | – | – | – | – | – | –
Lab315-huFc (Fc fusion, Nanobody expressed in human Fc fusion form) DVQLQASGGGAVQAGGSLRLSCAASGDITRRCMGWFRQAPGKEREGVAGISEDGITIYADSVKGRFTISKDNAKNSLYLQMNSLAPEDTANYSCAASILNRVGCRQLSYEYIYRGQGTQVTVSS[omitted - human IgG1 Fc with C220S (EU numbers)] | ~0.04 | – | 0.123 | 2.9e-05 | 237000 | 0.383 | 6.47e-05 | 169000 | – | – | ~0.1 | ~2 | ~2 | ~0.2

The next lines start with the values.

EC50 (read off the curve) [1] [nM] | EC50 (read off the curve) [2] [nM] | Kd [3] [nM] | koff [3] [s⁻¹] | kon [3] [M⁻¹ s⁻¹] | Kd [4] [nM] | koff [4] [s⁻¹] | kon [4] [M⁻¹ s⁻¹] | EC50 (read off the curve) [5] [nM] | EC50 (read off the curve) [6] [nM] | EC50 (read off the curve) [7] [nM] | EC50 (read off the curve) [8] [nM] | EC50 (read off the curve) [9] [nM] | EC50 (read off the curve) [10] [nM] | Binder
~0.08 | ~0.05 | 0.088 | 6.39e-05 | 726000 | 0.0958 | 7.67e-05 | 800000 | ~0.08 | ~0.05 | – | – | – | – | Lab331-huFc (Fc fusion, Nanobody expressed in human Fc fusion form) DVQLQASGGGSVQAGGSLRLSCAASGYTSNRYSMAWFRQAPGKEREVVAFIWTDGGRTYYADSVKGRLTISHDNAKNTLYLQMDSLKPEDTAMYYCAASSLLLQTINPRAWPYWGQGTQVTVSS[omitted - human IgG1 Fc with C220S (EU numbers)]
~0.06 | ~0.06 | 0.236 | 0.000119 | 504000 | 0.239 | 0.000118 | 491000 | – | – | – | – | – | – | Lab332-huFc (Fc fusion, Nanobody expressed in human Fc fusion form) EVQLQASGGGSVQAGGSLRVSCAASGDTFSRGSWGWFRQRPGKEREAVALISSDGWTFYADSVKGRFTISQDNTKNTLYLQMISLRPEDTAMYYCAASVLVLRTLNPKAWHHWGQGTQVTVSS[omitted - human IgG1 Fc with C220S (EU numbers)]
~0.02 | ~0.01 | 0.12 | 3.28e-05 | 273000 | 0.129 | 3.43e-05 | 265000 | – | – | – | – | – | – | Lab316-huFc (Fc fusion, Nanobody expressed in human Fc fusion form) DVQLQASGGGSVQAGGSLRLSCAASDNTFSRGSMSWFRQAPGKEREGVAIISSDGWTGYADSVKGRFTISQDNAKNTLYLQMIGLKPDDTAMYYCAASFLVLRALNPKAWHYWGQGTQVTVSS[omitted - human IgG1 Fc with C220S (EU numbers)]

Read-outs that look alike come from different tables or passages of the source.
